The list shows a part of the results.
What was measured:
Assay in all cases: glycan array binding signal (z-score within array); higher = stronger binding
Settings in all cases: glycan notation: IUPAC condensed, linker removed
[1] = molecular target: Fuc(a1-2)Gal
In short: (§1)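 The Consortium for Functional Glycomics database supplied 3228 glycan arrays, of which those lacking an available protein sequence were dropped. The binding signal, a within-array Z-score, was averaged across arrays of the same protein sequence and across linkers. Negative scores can be read as non-binding.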

[2] = molecular target: Fuc(a1-2)Gal(b1-3)GalNAc
In short: as §1

[3] = molecular target: Fuc(a1-2)Gal(b1-3)GalNAc(a1-3)[Fuc(a1-2)]Gal(b1-4)Glc
In short: as §1

[4] = molecular target: Fuc(a1-2)Gal(b1-3)GalNAc(a1-3)[Fuc(a1-2)]Gal(b1-4)GlcNAc
In short: as §1

[5] = molecular target: Fuc(a1-2)Gal(b1-3)GalNAc(b1-3)Gal
In short: as §1

[6] = molecular target: Fuc(a1-2)Gal(b1-3)GalNAc(b1-3)Gal(a1-4)Gal(b1-4)Glc
In short: as §1

[7] = molecular target: Fuc(a1-2)Gal(b1-3)GalNAc(b1-4)[Neu5Ac(a2-3)]Gal(b1-4)Glc
In short: as §1

[8] = molecular target: Fuc(a1-2)Gal(b1-3)GlcNAc
In short: as §1

[9] = molecular target: Fuc(a1-2)Gal(b1-3)GlcNAc(b1-2)Man(a1-3)[Fuc(a1-2)Gal(b1-3)GlcNAc(b1-2)Man(a1-6)]Man(b1-4)GlcNAc(b1-4)GlcNAc
In short: as §1

[10] = molecular target: Fuc(a1-2)Gal(b1-3)GlcNAc(b1-2)Man(a1-3)[Fuc(a1-2)Gal(b1-3)GlcNAc(b1-2)Man(a1-6)]Man(b1-4)GlcNAc(b1-4)[Fuc(a1-6)]GlcNAc
In short: as §1

[11] = molecular target: Fuc(a1-2)Gal(b1-3)GlcNAc(b1-3)Gal(b1-4)Glc
In short: as §1

[12] = molecular target: Fuc(a1-2)Gal(b1-3)GlcNAc(b1-3)GalNAc
In short: as §1

[13] = molecular target: Fuc(a1-2)Gal(b1-3)GlcNAc(b1-3)[Fuc(a1-2)Gal(b1-3)GlcNAc(b1-6)]GalNAc
In short: as §1

[14] = molecular target: Fuc(a1-2)Gal(b1-3)GlcNAc(b1-3)[Gal(b1-4)GlcNAc(b1-6)]Gal(b1-4)Glc
In short: as §1

[15] = molecular target: Fuc(a1-2)Gal(b1-3)GlcNAc(b1-3)[Neu5Ac(a2-6)Gal(b1-4)GlcNAc(b1-6)]Gal(b1-4)Glc
In short: as §1

[16] = molecular target: Fuc(a1-2)Gal(b1-3)GlcNAc6S
In short: as §1

[17] = molecular target: Fuc(a1-2)Gal(b1-3)[Fuc(a1-4)]GlcNAc
In short: as §1

[18] = molecular target: Fuc(a1-2)Gal(b1-3)[Fuc(a1-4)]GlcNAc(b1-2)Man(a1-3)[Fuc(a1-2)Gal(b1-3)[Fuc(a1-4)]GlcNAc(b1-2)Man(a1-3)]Man(b1-4)GlcNAc(b1-4)GlcNAc
In short: as §1

[19] = molecular target: Fuc(a1-2)Gal(b1-3)[Fuc(a1-4)]GlcNAc(b1-2)Man(a1-3)[Fuc(a1-2)Gal(b1-3)[Fuc(a1-4)]GlcNAc(b1-2)Man(a1-6)]Man(b1-4)GlcNAc(b1-4)[Fuc(a1-6)]GlcNAc(b1-4)[Fuc(a1-6)]GlcNAc
In short: as §1

[20] = molecular target: Fuc(a1-2)Gal(b1-3)[Fuc(a1-4)]GlcNAc(b1-3)[Fuc(a1-3)[Gal(b1-4)]GlcNAc(b1-6)]Gal(b1-4)Glc
In short: as §1

[21] = molecular target: Fuc(a1-2)Gal(b1-3)[Fuc(a1-4)]GlcNAc(b1-3)[Gal(b1-4)GlcNAc(b1-6)]Gal(b1-4)Glc
In short: as §1

[22] = molecular target: Fuc(a1-2)Gal(b1-4)Glc
In short: as §1

[23] = molecular target: Fuc(a1-2)Gal(b1-4)Glc6S
In short: as §1

[24] = molecular target: Fuc(a1-2)Gal(b1-4)GlcNAc
In short: as §1

[25] = molecular target: Fuc(a1-2)Gal(b1-4)GlcNAc(b1-2)Man
In short: as §1

[26] = molecular target: Fuc(a1-2)Gal(b1-4)GlcNAc(b1-2)Man(a1-3)[Fuc(a1-2)Gal(b1-4)GlcNAc(b1-2)Man(a1-6)]Man(b1-4)GlcNAc(b1-4)GlcNAc
In short: as §1

[27] = molecular target: Fuc(a1-2)Gal(b1-4)GlcNAc(b1-2)Man(a1-3)[Fuc(a1-2)Gal(b1-4)GlcNAc(b1-2)Man(a1-6)]Man(b1-4)GlcNAc(b1-4)[Fuc(a1-6)]GlcNAc
In short: as §1

[28] = molecular target: Fuc(a1-2)Gal(b1-4)GlcNAc(b1-2)[Fuc(a1-2)Gal(b1-4)GlcNAc(b1-4)]Man(a1-3)[Fuc(a1-2)Gal(b1-4)GlcNAc(b1-2)Man(a1-6)]Man(b1-4)GlcNAc(b1-4)GlcNAc
In short: as §1

[29] = molecular target: Fuc(a1-2)Gal(b1-4)GlcNAc(b1-3)Gal(b1-4)GlcNAc
In short: as §1

[30] = molecular target: Fuc(a1-2)Gal(b1-4)GlcNAc(b1-3)Gal(b1-4)GlcNAc(b1-2)Man(a1-3)[Fuc(a1-2)Gal(b1-4)GlcNAc(b1-3)Gal(b1-4)GlcNAc(b1-2)Man(a1-6)]Man(b1-4)GlcNAc(b1-4)GlcNAc
In short: as §1

B1: SP16665A-bot-344-23-344 (Bacteroides ovatus) (protein)
chain: SDNEFPDFDYQTVYFANQYGLRTIELGESEFVDNTLDNQHKMVIKAAWGGGYTNRNNVVINFKVDESLCDNLYFKDTDQPLVPMPASYYTLASDRIAIPKGQIMAGVEVQLTDDFFADEKSISENYVIPLLMTNVQGADSILQGKPVVENPVLTNAGDWSILPQNFVLYAVKYVNPWHGEYLRRGIDHATVAGTSKDIIRHEQFVENDEVVNISTKSMKDNLLTLKTKDESGKDISYTVRLSFAEDGSCTVHSGSQNVVVSGSGKFVSKGEKNSLGGKDRNAIYLDYTVNLTDNNIQLATKDTLVLRTRNVYGGKSLEVVRK
- glycan array binding signal (z-score) [1]: -0.352
- glycan array binding signal (z-score) [2]: 0.245
- glycan array binding signal (z-score) [3]: -0.461
- glycan array binding signal (z-score) [4]: -0.235
- glycan array binding signal (z-score) [5]: -0.326
- glycan array binding signal (z-score) [6]: -0.053
- glycan array binding signal (z-score) [7]: -0.292
- glycan array binding signal (z-score) [8]: -0.201
- glycan array binding signal (z-score) [9]: 0.068
- glycan array binding signal (z-score) [10]: 0.285
- glycan array binding signal (z-score) [11]: -0.208
- glycan array binding signal (z-score) [12]: -0.509
- glycan array binding signal (z-score) [13]: 0.262
- glycan array binding signal (z-score) [14]: -0.461
- glycan array binding signal (z-score) [15]: 0.282
- glycan array binding signal (z-score) [16]: 0.314
- glycan array binding signal (z-score) [17]: -0.547
- glycan array binding signal (z-score) [18]: 0.066
- glycan array binding signal (z-score) [19]: -0.207
- glycan array binding signal (z-score) [20]: 0.069
- glycan array binding signal (z-score) [21]: -0.441
- glycan array binding signal (z-score) [22]: -0.352
- glycan array binding signal (z-score) [23]: -0.314
- glycan array binding signal (z-score) [24]: -0.054
- glycan array binding signal (z-score) [25]: 0.22
- glycan array binding signal (z-score) [26]: 0.001
- glycan array binding signal (z-score) [27]: -0.468
- glycan array binding signal (z-score) [28]: -0.643
- glycan array binding signal (z-score) [29]: -0.213
- glycan array binding signal (z-score) [30]: 0.005
